44 molecules from paper PMC4336329 (PLoS ONE, 2015) can be followed below.

Hit rate of the full screen: of about 310,000 compounds, about 2,200 (0.71%) showed an effect of 50% or more. The effect is printed as a negative number. The list shows a part of the results.

In this assay the target is human ether-à-go-go-related gene (hERG) potassium channel (human, UniProt Q12809). In words: primary screen, population patch clamp on CHO cells stably expressing hERG.
Sequence of human ether-à-go-go-related gene (hERG) potassium channel (Q12809 whole entry, looked up): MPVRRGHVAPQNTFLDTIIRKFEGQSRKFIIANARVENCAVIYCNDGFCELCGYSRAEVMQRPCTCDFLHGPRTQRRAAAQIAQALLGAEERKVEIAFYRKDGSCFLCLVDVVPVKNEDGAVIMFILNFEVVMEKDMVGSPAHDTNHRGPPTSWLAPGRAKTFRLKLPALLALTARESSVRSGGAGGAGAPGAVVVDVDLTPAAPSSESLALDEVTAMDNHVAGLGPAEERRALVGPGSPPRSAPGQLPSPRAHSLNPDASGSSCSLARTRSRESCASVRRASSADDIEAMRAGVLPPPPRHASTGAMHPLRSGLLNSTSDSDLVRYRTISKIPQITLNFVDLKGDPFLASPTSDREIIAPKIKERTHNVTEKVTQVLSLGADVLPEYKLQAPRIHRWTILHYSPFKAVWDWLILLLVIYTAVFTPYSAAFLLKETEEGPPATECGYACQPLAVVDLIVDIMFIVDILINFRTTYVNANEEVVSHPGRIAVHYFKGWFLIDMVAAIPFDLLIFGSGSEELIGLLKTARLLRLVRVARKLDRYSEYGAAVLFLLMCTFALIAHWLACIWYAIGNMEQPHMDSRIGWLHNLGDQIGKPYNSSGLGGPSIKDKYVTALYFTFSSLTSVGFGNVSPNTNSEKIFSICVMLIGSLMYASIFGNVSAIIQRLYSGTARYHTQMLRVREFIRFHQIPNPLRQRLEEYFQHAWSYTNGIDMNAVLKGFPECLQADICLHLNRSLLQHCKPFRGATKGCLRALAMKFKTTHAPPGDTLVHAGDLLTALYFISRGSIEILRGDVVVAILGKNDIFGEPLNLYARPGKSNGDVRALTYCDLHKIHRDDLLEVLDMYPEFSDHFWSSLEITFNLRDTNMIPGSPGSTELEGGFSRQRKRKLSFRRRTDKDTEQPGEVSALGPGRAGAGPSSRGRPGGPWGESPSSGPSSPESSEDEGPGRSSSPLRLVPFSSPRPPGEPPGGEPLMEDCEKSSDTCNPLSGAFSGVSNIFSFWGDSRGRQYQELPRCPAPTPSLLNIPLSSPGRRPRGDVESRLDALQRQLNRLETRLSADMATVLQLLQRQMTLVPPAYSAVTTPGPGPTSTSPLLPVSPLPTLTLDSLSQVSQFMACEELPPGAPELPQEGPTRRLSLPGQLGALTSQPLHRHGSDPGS
`COc1ccccc1N1CCN(C/C=C/c2ccc(N(C)C)cc2)CC1`: the “hERG current change (%, negative = inhibition) at 1uM” value was -14.8%.
Under `COCCN1CC(C(=O)NCc2ncccc2C)CCC1=O` (centres unmarked) stands 18.5%.
For `CCCCC(=O)Nc1ccc(C(=O)NCCN2CCOCC2)cc1`, the “hERG current change (%, negative = inhibition) at 1uM” value worked out at 16.7%.
Consider `N#CCOC(=O)/C=C/c1ccc2c(c1)OCO2`, for which the “hERG current change (%, negative = inhibition) at 1uM” value is on record as 12.3%.
The value for `COc1ccc(CCn2c(N)c(C(=O)NCc3ccco3)c3nc4ccccc4nc32)cc1` was 6.71%.
The value for `COc1ccc(CNC(=O)CN(Cc2ccc(C)cc2)S(=O)(=O)c2ccc(Cl)cc2)cc1` was -18.7%; that for `C=CCn1c(=O)c2c(nc3n2CCCN3CCc2ccccc2)n(C)c1=O` was 14.8%.
On to `O=S(=O)(c1ccc(Br)s1)N1CCN(c2ccccc2)CC1`, for which the “hERG current change (%, negative = inhibition) at 1uM” value was determined as 11.5%.
For the molecule `CN(C)S(=O)(=O)Oc1ccccc1C(=O)Nc1cccc(C(F)(F)F)c1`, the “hERG current change (%, negative = inhibition) at 1uM” value worked out at 7.74%.
`COc1cc(/C(C)=N/NC(=O)CSc2nnc(C)s2)ccc1O`: the “hERG current change (%, negative = inhibition) at 1uM” value amounted to 10.4%.
Under `COc1cc(/C=N/NC(=O)c2c(-c3ccccc3)noc2C)cc(OC)c1OC` stands 1.51%; under `CCCCn1c(N)c(N2CCOCC2)c(=O)n(CC(=O)NCCc2ccccc2)c1=O`, 10.8%; under `Cc1ccc(-c2ccc(=O)n(CC(=O)NCC3COCCO3)n2)cc1` (centres unmarked), 14.6%.
Under `COc1cc(NC(=O)c2cc([N+](=O)[O-])ccc2Br)ccc1NC(=O)c1ccco1` stands 10.9%; under `Cc1cc(=O)n2[nH]c(-c3ccc(C(C)(C)C)cc3)cc2n1`, -1.14%; under `CCCCOC(=O)Cn1cnc2ccc(Br)cc2c1=O`, -6.98%.
In the case of `CCc1ccccc1N(C1=NCCCS1)S(=O)(=O)c1ccc(C(C)(C)C)cc1`, the “hERG current change (%, negative = inhibition) at 1uM” value came to 3.97%.
The value for `COc1ccc(NC(=O)CN(C)C(=O)C(Sc2ccccc2)c2ccccc2)cc1` (centres unmarked) was 2.88%; that for `COc1cc(OC)cc(C(=O)O/N=C(\N)c2cccc(C)c2)c1` was 9.35%.
The value for `CCC(C)(C)n1nnnc1CN1CCN(C(c2ccccc2)c2ccccc2)CC1` was 0.415%.
Under `CC(C)CC(C)N` (centres unmarked) stands 9.83%; under `Cc1cccc(-c2n[nH]c(=S)n2C)c1`, 12.1%; under `CCCCNC(=O)COC(=O)c1cc(C)oc1C`, 8.11%.
Consider `C=CCn1sc(N)c(C(=O)OCC)c1=S`, for which the “hERG current change (%, negative = inhibition) at 1uM” value was found to be 0.483%.
In the case of `CNc1nc(OC)nc(N(C#N)CN2C(=O)c3ccccc3S2(=O)=O)n1`, the “hERG current change (%, negative = inhibition) at 1uM” value is -0.215%.
Under `OC[C@@H](O)CCl` stands 12.7%; under `O=C(Nc1cccc(C(F)(F)F)c1)c1scc2c1OCCO2`, 6.75%.
Under `C=CCSc1ncc(C#N)c(N)n1` stands -5.03%; under `COc1ccc(C(=O)NCc2nnc(SCC(=O)NC3CCCCC3)n2C)cc1`, 13.4%; under `O=C(Nc1ccc(OC(F)(F)F)cc1)Nc1cccc([N+](=O)[O-])c1`, 11.4%.
As to `COc1ccccc1OCC(=O)NCCC1=CCCCC1`, the “hERG current change (%, negative = inhibition) at 1uM” value was found to be 10.7%.
The value for `CCCNS(=O)(=O)c1ccc(OCC(=O)OC)cc1` was 5.98%; that for `Cc1ccc(SCC(=O)Nc2nnc(-c3ccco3)o2)cc1` was 7.91%.
The value for `CC1(C)CC(=O)C(C(N)=NC(=O)c2ccc([N+](=O)[O-])cc2)=C(O)C1` was 13.3%; that for `Cc1ccc(Cn2c(C(C)Nc3nc(-c4ccc(F)cc4)cs3)nc3cc(C(F)(F)F)ccc32)cc1` (centres unmarked) was 13%.
The value for `O=C(NCc1ccccn1)c1cc(-c2ccncc2)nc2ccccc12` was -0.554%; that for `COc1ccc2nc(NC(=O)CCN3C(=S)NC(C)(C)CC3C)sc2c1` (centres unmarked) was 1.42%; that for `Cc1cccc(C(=O)NC(=S)Nc2ccc(Cc3ccncc3)cc2)c1` was 0.134%.
In the case of `COC(=O)C1=C(N)c2c(F)cccc2C1(C#N)c1ccc(F)cc1` (centres unmarked), the “hERG current change (%, negative = inhibition) at 1uM” value is given as 10.4%.
The value for `CCc1cccc(C)c1NC(=O)C(c1ccccc1)N1CCC1=O` (centres unmarked) was 11.5%; that for `CNC(=O)CC1C(=O)N(c2ccc(F)cc2)C(=S)N1NC(=O)c1ccc(Br)cc1` (centres unmarked) was 9.79%.
Under `O=S(=O)(Cc1cccc(C(F)(F)F)c1)c1ncn[nH]1` stands 17%; under `Cc1ccc(SCCC(=O)NCCSCc2ccccc2C)cc1`, 10.1%.
The value for `Cl.c1ccc2c(c1)oc1c(Nc3ccc4c(c3)OCO4)ncnc12` was 17%.
